Data taken from the supplement of paper PMC10126150.
Sequences with one replicate were seen in a single cluster, so their values are uncertain.

Test system: ATP
Assay: switch fluorescence ratio, 500 uM ATP over buffer (Cy3 cluster intensity, sum of 5 cycles each) (fold (ratio)); higher = stronger signal-on switching upon ATP binding; sequences stand for … in TCGTCGGCAGCGTCAGATGTGTATAAGAGACAGTTTTTTTTTTTTTTTTTTTTTTTTT…TC
Details: aptamer strand: ATP DNA aptamer (quencher-CACCTGGGGGAGTATTGCGGAGGAAGG + anchor), 100 nM annealed; ATP concentration: 500 uM; one replicate
Method in brief: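 Switching-strand clusters labelled with Cy3 on a modified Illumina MiSeq flow-cell were annealed to 100 nM quencher-labelled ATP aptamer, imaged in selection buffer, and re-imaged after 15 min with 500 uM ATP at 22 °C. This was done over five cycles with NaOH stripping and re-annealing in between. The fluorescence ratio is summed target-cycle over summed buffer-cycle Cy3 intensity per cluster, averaged per switch-domain sequence, excluding clusters outside 100-1000 RFU.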
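Further: ATP exposure 15 min at 22 °C before imaging.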

Row | Sequence | switch fluorescence ratio
1 | CAAGAATGAT | 0.983
2 | AGGACAGC | 0.986
3 | TCTCCCAGGG | 1.16
4 | ACTTCTACGG | 1.15
5 | TCGAAAGTGG | 0.992
6 | GATGACAACT | 0.97
7 | ATTCCCATGT | 0.983
8 | GTTGTTCGG | 0.986
9 | TCTGGCTTGG | 0.99
10 | CTGTCACAGC | 1.04
11 | TAGTTCCTCC | 2.17
12 | AGCGCGCACG | 1.04
13 | TGGGTAACCC | 1.02
14 | ACATTTGCGG | 0.995
15 | AGTCTGTATG | 1
16 | CCAGTGCCTC | 1.02
17 | GGCCGCACGA | 1.23
18 | CCGGGAGTCT | 1.1
19 | GCAGTCCGTT | 1.02
20 | CATAAGAGGT | 0.993
21 | TAAGCTATAG | 0.999
22 | GCTGCTGGTG | 1.1

Row | Sequence | switch fluorescence ratio
23 | AACTTCGCTG | 1.14
24 | CGGCCGCCAA | 3.41
25 | TTGAAGATAT | 0.948
26 | TGGTGTACC | 1.02
27 | AGGGCCCATT | 1.02
28 | AGAATTACAG | 0.979
29 | TAGCCTTGCT | 1.02
30 | ACATCAAAT | 1.05
31 | AAACTATATT | 1
32 | GTATGTAGGC | 0.983
33 | AGGGAAGCC | 0.989
34 | CAAAAGCCCG | 1.02
35 | AGGCCATTAG | 0.984
36 | AAATCTGCTT | 1.02
37 | GGTCAAGCGC | 1
38 | AGAGGGTGAG | 0.98
39 | GCGATCACCT | 1.16
40 | AGAAACCTCA | 1.28
41 | CTTAAGTCGT | 0.939
42 | TGTAATGTAC | 2.01
43 | GCCAGGACCC | 1.03
44 | TCGAGTGTTT | 0.952

Row | Sequence | switch fluorescence ratio
45 | TATTGCGAG | 0.956
46 | TGTCGACTAG | 0.966
47 | AGTACAGTGT | 1
48 | ATGATTCTTA | 1.03
49 | ATTCTGGGG | 0.974
50 | ATGCATTGTG | 0.971
51 | CAGAGCCTCA | 0.994
52 | GGCTATGAAG | 1.02
53 | CCGTCAGATA | 1.27
54 | TCTTGACAAC | 1.01
55 | GTGATATGCT | 0.969
56 | GCTACACGTG | 0.988
57 | CACCTACTT | 1.35
58 | GTGTCATGGC | 1.02
59 | TGCTTCATCT | 0.99
60 | ACAGACACGG | 1.04
61 | ATATGTAGCG | 1.02
62 | ATACGAGAGG | 1.05
63 | ATTAGGACTC | 0.994
64 | TAAATGACAT | 1.02
65 | CCCTGAACTT | 1.07
66 | GACATGGAGC | 1.05

Row | Sequence | switch fluorescence ratio
67 | TTAAGATTCA | 0.974
68 | CTTAGTTTTA | 1.01
69 | CAGGGGATGA | 0.999
70 | ACCTGGGTG | 2.27
71 | CACGTGGTCC | 0.997
72 | ATGGGGTATA | 0.981
73 | TTCTATAGTG | 1.03
74 | GAAGCCCTAT | 1.05
75 | TCAAGTCTCC | 0.997
76 | AGAAATTCTT | 1.02
77 | ATTAGATTG | 1.02
78 | AGGGTAAAAA | 1.07
79 | CAGTACCAAT | 1.08
80 | TAGGCTTT | 1.03
81 | TGCCGATCGA | 1.05
82 | TTTACGAAGG | 0.975
83 | GGTATACAGT | 0.987
84 | GCCGGATTCA | 0.983
85 | ATAAAGGAGC | 0.945
